Measurements: US20100222401A1, “COMPOSITIONS AND METHODS FOR TREATING PATHOLOGIC ANGIOGENESIS AND VASCULAR PERMEABILITY” (priority 2008, published 2010)

Tests used:
[1] = test system: HEK 293 cells expressing Robo4; test: Haptotaxis migration assay, transfected HEK 293 cells; format: cell-based, human
Robo4 and paxillin = molecular target: T1, Robo4 and paxillin (Mus musculus, UniProt Q8C310); test: Robo4 immunoprecipitation, detection of endogenous paxillin; format: cell-based; conditions: HEK 293 cells expressing Robo4, presence versus absence of Slit2
T1 construct: HEK 293 cells were transfected with full length Robo4-HA and paxillin-V5, and stimulated with Slit2 for 5 minutes; expressed in transfected cells; host or cells: HEK 293
T1 sequence (Q8C310 28-1012): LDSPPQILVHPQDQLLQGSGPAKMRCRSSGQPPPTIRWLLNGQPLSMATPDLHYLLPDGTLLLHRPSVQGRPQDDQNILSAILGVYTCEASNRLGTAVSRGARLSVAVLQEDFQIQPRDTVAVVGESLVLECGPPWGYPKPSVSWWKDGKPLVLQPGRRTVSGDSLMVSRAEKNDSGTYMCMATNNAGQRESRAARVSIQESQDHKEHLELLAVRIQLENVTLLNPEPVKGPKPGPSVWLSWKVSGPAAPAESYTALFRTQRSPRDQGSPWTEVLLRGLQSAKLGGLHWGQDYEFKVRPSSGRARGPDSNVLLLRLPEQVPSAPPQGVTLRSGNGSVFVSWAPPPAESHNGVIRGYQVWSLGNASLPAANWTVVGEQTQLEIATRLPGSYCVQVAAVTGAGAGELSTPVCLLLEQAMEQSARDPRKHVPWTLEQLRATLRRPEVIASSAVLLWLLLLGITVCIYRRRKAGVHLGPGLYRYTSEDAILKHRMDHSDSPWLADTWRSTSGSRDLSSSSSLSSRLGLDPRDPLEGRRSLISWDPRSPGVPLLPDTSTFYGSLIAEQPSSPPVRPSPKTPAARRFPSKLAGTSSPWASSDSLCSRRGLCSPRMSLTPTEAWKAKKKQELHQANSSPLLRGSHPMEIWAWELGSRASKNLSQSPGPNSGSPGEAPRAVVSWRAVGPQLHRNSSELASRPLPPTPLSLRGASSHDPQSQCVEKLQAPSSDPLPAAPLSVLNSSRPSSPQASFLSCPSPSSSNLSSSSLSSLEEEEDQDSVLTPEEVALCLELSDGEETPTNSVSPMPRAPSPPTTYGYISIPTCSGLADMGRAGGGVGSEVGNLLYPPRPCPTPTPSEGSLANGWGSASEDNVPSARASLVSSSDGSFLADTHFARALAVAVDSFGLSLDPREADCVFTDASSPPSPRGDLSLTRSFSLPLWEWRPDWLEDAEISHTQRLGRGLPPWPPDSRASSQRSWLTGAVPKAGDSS
T1 sequence (P49023 whole entry partner): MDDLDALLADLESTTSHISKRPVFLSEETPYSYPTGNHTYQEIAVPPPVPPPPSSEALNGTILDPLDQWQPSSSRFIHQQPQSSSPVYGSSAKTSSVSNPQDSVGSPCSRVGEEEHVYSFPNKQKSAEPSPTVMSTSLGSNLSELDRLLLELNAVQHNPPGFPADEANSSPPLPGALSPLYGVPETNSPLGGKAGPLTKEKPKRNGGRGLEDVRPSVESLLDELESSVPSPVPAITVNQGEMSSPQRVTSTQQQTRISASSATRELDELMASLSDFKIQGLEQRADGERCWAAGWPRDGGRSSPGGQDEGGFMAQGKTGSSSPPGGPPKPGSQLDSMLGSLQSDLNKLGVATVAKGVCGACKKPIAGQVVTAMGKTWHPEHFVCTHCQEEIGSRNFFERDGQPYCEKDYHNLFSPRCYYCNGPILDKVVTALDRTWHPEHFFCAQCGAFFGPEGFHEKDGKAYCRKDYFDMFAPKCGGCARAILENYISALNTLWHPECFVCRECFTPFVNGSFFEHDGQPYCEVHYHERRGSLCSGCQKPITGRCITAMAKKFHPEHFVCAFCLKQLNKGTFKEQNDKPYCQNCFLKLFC

Rac = Rac activation assay (GST-PBD pull down), HEK 293 cells expressing Robo4; format: cell-based, human; conditions: HEK 293 cells expressing Robo4 on fibronectin and Slit2, versus pcDNA3
Cdc42 = Cdc42 activation assay, HEK 293 cells expressing Robo4; format: cell-based, human; conditions: HEK 293 cells expressing Robo4, exposure to Slit2
[2] = test system: bovine aortic endothelial (BAE) cells; format: cell-based

B1: Slit2N (protein)
chain: QACPAQCSCSGSTVDCHGLALRSVPRNIPRNTERLDLNGNNITRITKTDFAGLRHLRVLQLMENKISTIERGAFQDLKELERLRLNRNHLQLFPELLFLGTAKLYRLDLSENQIQAIPRKAFRGAVDIKNLQLDYNQISCIEDGAFRALRDLEVLTLNNNNITRLSVASFNHMPKLRTFRLHSNNLYCDCHLAWLSDWLRQRPRVGLYTQCMGPSHLRGHNVAEVQKREFVCSGHQSFMAPSCSVLHCPAACTCSNNIVDCRGKGLTEIPTNLPETITEIRLEQNTIKVIPPGAFSPYKKLRRIDLSNNQISELAPDAFQGLRSLNSLVLYGNKITELPKSLFEGLFSLQLLLLNANKINCLRVDAFQDLHNLNLLSLYDNKLQTIAKGTFSPLRAIQTMHLAQNPFICDCHLKWLADYLHTNPIETSGARCTSPRRLANKRIGQIKSKKFRCSAKEQYFIPGTEDYRSKLSGDCFADLACPEKCRCEGTTVDCSNQKLNKIPEHIPQYTAELRLNNNEFTVLEATGIFKKLPQLRKINFSNNKITDIEEGAFEGASGVNEILLTSNRLENVQHKMFKGLESLKTLMLRSNRITCVGNDSFIGLSSVRLLSLYDNQITTVAPGAFDTLHSLSTLNLLANPFNCNCYLAWLGEWLRKKRIVTGNPRCQKPYFLKEIPIQDVAIQDFTCDDGNDDNSCSPLSRCPTECTCLDTVVRCSNKGLKVLPKGIPRDVTELYLDGNQFTLVPKELSNYKHLTLIDLSNNRISTLSNQSFSNMTQLLTLILSYNRLRCIPPRTFDGLKSLRLLSLHGNDISVVPEGAFNDLSALSHLAIGANPLYCDCNMQWLSDWVKSEYKEPGIARCAGPGEMADKLLLTTPSKKFTCQGPVDVNILAKCNPCLSNPCKNDGTCNSDPVDFYRCTCPYGFKGQDCDVPIHACISNPCKHGGTCHLKEGEEDGFWCICADGFEGENCEVNVDDCEDNDCENNSTCVDGINNYTCLCPPEYTGELCEEKLDFCAQDLNPCQHDSKCILTPKGFKCDCTPGYVGEHCDIDFDDCQDNKCKNGAHCTDAVNGYTCICPEGYSGLFCEFSPP
[1]; HEK 293 cells expressing Robo4-NH2
  Fibronectin-dependent migration (haptotaxis): inhibited
[1]; HEK 293 cells expressing Robo4, membranes coated with fibronectin and Slit2
  fibronectin-induced migration (haptotaxis): inhibited
Robo4 and paxillin
  association of Robo4 with paxillin: stimulated
Rac
  adhesion-stimulated Rac activation: significantly less
Cdc42
  Cdc42 activation: unaltered
[2]
  cell spreading: reduced spreading
